# Results published in PubChem BioAssay AID720542 (National Center for Advancing Translational Sciences (NCATS), 2013).
# The campaign covered roughly 360,000 compounds. About 740 (0.21%) were called active. Inconclusive results, whose numbers are uncertain, are shown with a selection of clear calls. The call rests on the fitted dose curve; in most records, active means well fitted inhibition curve with a large enough effect; inconclusive means small, poorly fitted or top-dose-only effect; inactive means no such curve, though single readings can be large or run the other way. No potency is given beside an inconclusive call; the fits are too rough.
# Test system: Plasmodium falciparum AMA1 (3D7) - RON2 peptide interaction
# Experiment: qHTS for Inhibitors of AMA1-RON; Towards Development of Antimalarial Drug Lead: Primary Screen; further: nearly all actives have a fitted effect of over 45% in size;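 on activity change, negative = inhibition: 0% = vehicle wells and -100% = peptide control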
# Settings: AlphaScreen AMA1-biotinylated RON2 peptide binding; activity change, negative = inhibition: at 58.2 µM (top of the series) unless noted
# Method in brief: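 AMA1 (3D7) with his tag at 25 nM final met compounds first, then biotinylated RON2 peptide at 25 nM; detection used donor plus acceptor beads, 10 µg/mL apiece, read by AlphaScreen after 30 min at room temperature.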
# Potency means the concentration at half of the fitted maximal effect; tags describe the fitted curve by direction and shape.
SMILES,Potency,"activity change, negative = inhibition"
CN(C)c1ccc(/C=C/c2nnnn2-c2ccccc2)cc1,"inconclusive [inhibitor, single point]",
COc1ccc2c(c1)C1C=CCC1C(c1cc3c(cc1Br)OCO3)N2 (stereo not given),"inconclusive [inhibitor, single point]",
Cc1c(Cl)cccc1NC(=O)Nc1ccc(C(=O)N2CCCC2)cc1,"inconclusive [inhibitor, single point]",
CCN(c1ccccc1)S(=O)(=O)c1cc2c(cc1C)N(C)CCO2,"inconclusive [inhibitor, single point]",
CCc1ccc2c(c1)/C(=N/N(C)C(=S)NC)C(=O)N2,"inconclusive [inhibitor, partial curve]",
O=S(=O)(c1ccc(F)cc1)N1CCN(Cc2ccccc2C(F)(F)F)CC1,"inconclusive [inhibitor, single point]",
c1ccc(COc2cccc(CN3CCN(c4ccccn4)CC3)c2)cc1,"inconclusive [inhibitor, partial curve]",
COc1cc(N/C(N)=N/c2nc(C)cc(C)n2)c(OC)cc1Cl,,inactive: 0.468%
O=C1CN2C(=Nc3ccc(Br)cc3C2c2ccccc2)CCN1 (stereo not given),,inactive: 0%
Cn1cccc1/C=N/N1CCN(Cc2ccccc2)CC1,,inactive: -16.7%
CC1=C/C(=C(\c2cc(C)c(O)c(Br)c2)c2ccccc2S(=O)(=O)O)C=C(Br)C1=O,"inconclusive [inhibitor, single point]",
COc1ccc(-n2cc(-c3ccccc3)c3c(NCCCN4CCOCC4)ncnc32)cc1,"inconclusive [inhibitor, partial curve, poor fit]",
COC(=O)C1=C(C)N(Cc2ccco2)C(=O)/C1=C\c1ccc(N(C)C)cc1,"inconclusive [inhibitor, full curve]",
COc1cc([C@H]2OC[C@H]3[C@@H]2CO[C@H]3c2ccc(O)c(OC)c2)ccc1O,,inactive: -0.788%
O=C(Cn1nnc(-c2cccs2)n1)NNC(=O)c1ccccc1Cl,,inactive: 71.5%
COc1ccc(S(=O)(=O)n2c(CCN3CCOCC3)nc3ccccc32)cc1,"inconclusive [inhibitor, partial curve]",
COc1ccccc1-c1sc2cc3c(cc2c1-c1ccc(OCCN2CCCCC2)cc1)OCO3,"inconclusive [inhibitor, partial curve]",
O=[N+]([O-])c1ccc(Nc2ccccc2)c2nonc12,"inconclusive [inhibitor, partial curve]",
CC1CCCCN1CCCNC(=O)C1CCCN(c2ncnc3c2nc2n3CCCCC2)C1 (stereo not given),,inactive: 0.989%
COc1ccc(-c2csc3ncnc(N4CCN(S(=O)(=O)c5cccc(F)c5)CC4)c23)cc1,"inconclusive [inhibitor, partial curve, poor fit]",
COc1ccc(C(=O)c2c(C(F)(F)F)oc3c2C(=O)c2ccccc2C3=O)cc1OC,"inconclusive [inhibitor, single point]",
COc1ccc(NC(=O)Nc2ccccc2F)cc1,,inactive: 6.17%
c1ccc2oc(-c3csc(N4CCOCC4)n3)cc2c1,,inactive: -19.9%

SMILES,Potency,"activity change, negative = inhibition"
CC(C)=NNc1nc(-c2ccccc2)cs1,,inactive: 21.9%
O=[N+]([O-])c1cccc(-c2ccc(CN3CCN(c4ccccc4)CC3)o2)c1,"inconclusive [inhibitor, partial curve]",
O=C(NCc1ccccc1C(F)(F)F)C1CCC(=O)N(C2CC2)C1 (stereo not given),,inactive: 16.8%
COc1ccc(OC)c(S(=O)(=O)NCC(c2ccco2)N2CCc3ccccc32)c1 (stereo not given),"inconclusive [inhibitor, partial curve]",
CC1=C/C(=C(/c2cc(C)c(O)c(Br)c2)c2ccccc2S(=O)(=O)O)C=C(Br)C1=O,"inconclusive [inhibitor, single point]",
O=C(/C(C=Nc1ccc(F)cc1)=C(/O)c1ccco1)C(F)(F)F,,inactive: -6.64%
O=C(CCN1CCOCC1)N1CCc2c([nH]c3ccccc23)C1c1cccc(Cl)c1 (stereo not given),"inconclusive [inhibitor, single point]",
O=[N+]([O-])c1ccc(CN2CCC(Cc3ccccc3)CC2)cc1,"inconclusive [inhibitor, partial curve]",
COc1ccccc1Nc1ccc(S(=O)(=O)N2CCCCC2)cc1[N+](=O)[O-],"inconclusive [inhibitor, partial curve]",
CC12CCC(C(=O)N(CSC(=S)N/N=C\c3ccccc3O)C1=O)C2(C)C (stereo not given),active: 20 µM,
Cc1c(Cc2ccccc2)c(=O)oc2c(C)c(OC(C)C(=O)NCC3CCC(C(=O)O)CC3)ccc12 (stereo not given),,inactive: 0.0963%
O=[N+]([O-])c1cc(Cl)ccc1NCCc1ccccn1,active: 22.4 µM,
Cc1nn(-c2ccccc2)c(C)c1/C=N/Nc1nc2ccccc2[nH]1,"inconclusive [inhibitor, single point]",
CCCN(CCC)S(=O)(=O)c1ccc(Cl)c([N+](=O)[O-])c1,,inactive: -22.7%
Cn1c(SCC(=O)NCc2ccc3c(c2)OCO3)nnc1-c1cccs1,"inconclusive [inhibitor, partial curve]",
CCC(C)N1C(=O)S/C(=C/c2ccc(N3CCOCC3)cc2C)C1=O (stereo not given),"inconclusive [inhibitor, partial curve]",
CN1C(=O)c2cccc(N(C)C)c2C1=O,"inconclusive [inhibitor, partial curve]",
CC(=O)Nc1ccc(OCC(O)Cn2c3ccccc3c3ccccc32)cc1 (stereo not given),"inconclusive [inhibitor, partial curve]",
COC(=O)c1ccnc(SCC(=O)c2ccccc2)c1,"inconclusive [inhibitor, single point]",
O=S(=O)(/C=C/c1ccccc1)N1CCN(Cc2ccccc2)CC1,"inconclusive [inhibitor, single point]",
Cc1ccc(CN2CCN(c3ncccn3)CC2)c(C)c1,"inconclusive [inhibitor, full curve, poor fit]",
COc1ccc(OCc2nnc(SCC(=O)N3c4ccccc4Sc4ccc(Cl)cc43)o2)cc1,,inconclusive: -9.1% [inhibitor]
